Test results: PubChem BioAssay (NCATS)
Inconclusive results, whose numbers are uncertain, are shown with a selection of clear calls. Potencies beside an inconclusive call are fits to weak or partial responses and may not hold up. Activity calls are given as the source filed them. Calls come from the whole dose curve; as a rule, active = well fitted inhibition curve with a large enough effect; inconclusive = small, poorly fitted or top-dose-only effect; inactive = flat fitted curve, though single readings scatter.

Target: Tyrosyl-DNA phosphodiesterase 1 (Homo sapiens) (UniProt Q9NUW8)
Chain of UniProt Q9NUW8 (Q9NUW8 whole entry, looked up): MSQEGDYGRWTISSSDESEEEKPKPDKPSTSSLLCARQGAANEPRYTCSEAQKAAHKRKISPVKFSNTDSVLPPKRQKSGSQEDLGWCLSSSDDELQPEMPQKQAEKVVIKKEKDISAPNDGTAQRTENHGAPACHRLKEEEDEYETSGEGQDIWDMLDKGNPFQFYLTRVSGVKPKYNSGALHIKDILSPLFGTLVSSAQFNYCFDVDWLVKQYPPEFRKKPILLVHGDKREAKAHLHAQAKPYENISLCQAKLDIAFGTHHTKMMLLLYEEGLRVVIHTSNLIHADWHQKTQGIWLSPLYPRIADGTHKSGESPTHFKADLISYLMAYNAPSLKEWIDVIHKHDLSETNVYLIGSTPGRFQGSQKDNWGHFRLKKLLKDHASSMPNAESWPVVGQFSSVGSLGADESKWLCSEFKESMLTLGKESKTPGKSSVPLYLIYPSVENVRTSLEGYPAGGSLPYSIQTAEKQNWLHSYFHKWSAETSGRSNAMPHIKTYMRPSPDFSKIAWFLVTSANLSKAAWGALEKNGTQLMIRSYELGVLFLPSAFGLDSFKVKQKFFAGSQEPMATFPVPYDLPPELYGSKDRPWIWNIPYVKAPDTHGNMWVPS
Assay: Confirmation Assay for Inhibitors of Tyrosyl-DNA Phosphodiesterase (TDP1) (AID 489007); note: nearly all actives have a fitted effect of over 40% in size
Settings: recombinant human TDP1 enzymatic activity, dose-response
How it was run: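 Recombinant E. coli-expressed Tdp1 (1 nM final) was preincubated with compounds 15 min at room temperature, then reacted 5 min with 15 nM 5'-biotin/3'-phosphotyrosine-FITC DNA substrate; cleavage read as loss of AlphaScreen signal (10 ug/ml beads, 10 min).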
Potency is the fitted concentration of half-maximal effect; tags give direction and shape of the fitted curve.

Potency, inconclusive:
O=C(Nc1cccc(NC(=O)c2ccc(Br)o2)n1)c1ccc(Br)o1 39.8 µM [inhibitor, partial curve], O=[N+]([O-])c1cc([N+](=O)[O-])c2n[nH]c(-c3ccccc3)c2c1 12.6 µM [inhibitor, full curve, poor fit], NC(=O)C1CCN(C(=O)CN2C(=O)c3ccccc3S2(=O)=O)CC1 31.6 µM [inhibitor, partial curve], O=C(O)C1Nc2c(O)cccc2C2C=CCC12 (stereo unspecified) 1.62 µM [inhibitor, full curve], O=C(Nc1nc2nc(-c3ccccc3)cc(=O)n2[nH]1)c1ccc(Cl)cc1 2.24 µM [inhibitor, full curve], O=C1NC(=S)N/C1=C/c1ccc(-c2c(Br)cc([N+](=O)[O-])cc2Br)o1 50.1 µM [inhibitor, partial curve], COc1cc(/C=N/NC(=O)c2cccnc2)ccc1OCC(=O)Nc1ccc(C)cc1 79.4 µM [inhibitor, partial curve], Cc1nc(NC(=O)CSc2nnc(Cn3nnc4ccccc43)n2C)sc1C 50.1 µM [inhibitor, partial curve, poor fit], O=C(NN(C(=O)c1ccccc1)c1ccccc1)c1ccccc1 100 µM [inhibitor, partial curve]

Potency, active:
O=C(CSc1nnc(SCc2ccc(Cl)cc2)s1)N/N=C/c1c[nH]c2ccccc12 5.01 µM, Cc1ccc(Oc2cc(-n3nc(C)cc3C)ncn2)cc1 112 µM
